In all, about 310,000 compounds went through this assay and about 14,000 (4.5%) showed an effect of 50% or more. The effect is printed as a negative number. The list shows a part of the results.
These compounds were tested against human ether-à-go-go-related gene (hERG) potassium channel (human, UniProt Q12809) (assay: primary screen, population patch clamp on CHO cells stably expressing hERG).
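Also: peak tail current of the secondary pulse compared with the same well before compound.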

human ether-à-go-go-related gene (hERG) potassium channel, sequence (Q12809 whole entry, looked up): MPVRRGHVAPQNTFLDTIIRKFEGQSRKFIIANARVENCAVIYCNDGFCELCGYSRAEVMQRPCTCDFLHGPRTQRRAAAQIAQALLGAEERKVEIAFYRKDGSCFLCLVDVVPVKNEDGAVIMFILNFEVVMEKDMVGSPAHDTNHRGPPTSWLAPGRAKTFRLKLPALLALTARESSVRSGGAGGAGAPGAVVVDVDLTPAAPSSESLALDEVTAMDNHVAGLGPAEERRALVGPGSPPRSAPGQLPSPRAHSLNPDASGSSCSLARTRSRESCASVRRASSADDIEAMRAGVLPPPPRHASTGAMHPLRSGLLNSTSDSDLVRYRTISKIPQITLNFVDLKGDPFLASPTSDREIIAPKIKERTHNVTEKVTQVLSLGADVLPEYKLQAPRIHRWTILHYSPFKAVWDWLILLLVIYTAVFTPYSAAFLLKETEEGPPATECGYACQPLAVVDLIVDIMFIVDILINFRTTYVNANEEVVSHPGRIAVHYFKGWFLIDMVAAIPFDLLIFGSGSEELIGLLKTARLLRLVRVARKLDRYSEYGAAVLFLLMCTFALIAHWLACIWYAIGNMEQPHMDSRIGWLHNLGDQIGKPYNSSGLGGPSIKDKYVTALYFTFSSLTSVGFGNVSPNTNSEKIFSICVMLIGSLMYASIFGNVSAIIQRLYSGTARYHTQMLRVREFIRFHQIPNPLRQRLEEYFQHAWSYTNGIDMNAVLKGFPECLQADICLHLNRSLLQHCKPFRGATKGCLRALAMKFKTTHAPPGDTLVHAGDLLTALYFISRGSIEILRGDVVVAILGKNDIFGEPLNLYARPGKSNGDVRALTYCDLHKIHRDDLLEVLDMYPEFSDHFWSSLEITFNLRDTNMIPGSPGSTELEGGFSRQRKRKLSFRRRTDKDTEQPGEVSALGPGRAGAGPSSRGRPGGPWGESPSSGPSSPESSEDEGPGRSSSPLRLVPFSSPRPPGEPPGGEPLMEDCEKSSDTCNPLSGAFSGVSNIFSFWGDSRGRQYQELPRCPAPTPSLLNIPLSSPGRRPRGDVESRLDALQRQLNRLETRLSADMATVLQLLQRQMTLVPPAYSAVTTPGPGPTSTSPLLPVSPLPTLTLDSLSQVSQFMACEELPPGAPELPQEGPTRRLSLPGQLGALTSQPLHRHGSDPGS

Row | SMILES | hERG current change (%, negative = inhibition) at 10uM [%]
1 | Cn1c(CNc2ccccn2)c(C#N)c2ccccc21 | -6.94
2 | COc1ccc(F)cc1C(=O)C1CCCN(Cc2ccc3c(c2)OCCO3)C1 (centres unmarked) | -54.3
3 | O=C1C2CCCN2C(c2cccs2)N1c1ccccn1 (centres unmarked) | 2.01
4 | CC(=O)Nc1ccc(OS(=O)(=O)c2cc(Cl)ccc2C)cc1 | -6.02
5 | COc1ccc(CNC(=S)NCc2ccc(OC)cc2)cc1 | 19.1
6 | O=C(O)CC(NC(=O)C12CC3CC(CC(C3)C1)C2)c1ccc2c(c1)OCO2 (centres unmarked) | 13.4
7 | CCOc1ccc(OCC)c(NC(=O)C2C3C=CC(O3)C2C(=O)NCc2ccco2)c1 (centres unmarked) | -3.93
8 | COc1ccc(CNC(=O)c2ccc(Cl)c(NC3=NC4CS(=O)(=O)CC4S3)c2)cc1 (centres unmarked) | 3.02
9 | CN1CCN(C(=O)C2CCC(=O)N(CCc3cccc(F)c3)C2)CC1 (centres unmarked) | 12.3
10 | Cc1ccccc1NC(=O)N(C(C)C)C(C)C | 1.81
11 | CC(=O)N1CC(C)Sc2ccc(S(=O)(=O)NCCc3ccc(C)cc3)cc21 (centres unmarked) | -1.22
12 | COc1ccc(C(CNC(=O)c2cccc(NS(=O)(=O)c3ccc(C)c(F)c3)c2)N(C)C)cc1 (centres unmarked) | -62.6
13 | CCNC(=S)NCc1ccc(Cl)cc1 | 0.291
14 | Cc1cc(C)nc(N(C#N)Cc2cccc3ccccc23)n1 | 3.61
15 | CCOC(=O)N1CCC(NC(=O)Cc2cn(C)c3ccccc23)CC1 | 0.471
16 | COc1ccccc1N1CCN(S(=O)(=O)c2ccc3c(c2)CC(C)N3C(C)=O)CC1 (centres unmarked) | 9.69
17 | COc1ccc(C(=O)NCCCSc2ccccc2)cc1F | 8.32
18 | COCC(O)CSc1c([N+](=O)[O-])nc(C)n1Cc1ccc(OC)c([N+](=O)[O-])c1 (centres unmarked) | -2.82
19 | COc1ccc(N2CCN(C(=O)/C=C/c3ccco3)CC2)cc1 | -34.5

Row | SMILES | hERG current change (%, negative = inhibition) at 10uM [%]
20 | CCOC(=O)N1CCN(S(=O)(=O)c2cc(-c3nn4c(C)nnc4c4ccccc34)ccc2C)CC1 | -29
21 | CC1CCN(C(=O)c2[nH]cnc2C(=O)N[C@H](C)c2ccccc2)CC1 | 16
22 | Cc1cc(C)c(S(=O)(=O)Nc2ccccn2)c(C)c1 | 14.9
23 | CC(C)CNC(=O)COC(=O)CCC(=O)c1ccc(F)cc1 | 6.45
24 | CN1c2ccc([N+](=O)[O-])cc2C(C)(C)C12C=Cc1cc(C(=O)O)ccc1O2 (centres unmarked) | 42
25 | NNC(=O)c1ccc(NS(=O)(=O)c2ccc(Br)cc2)cc1 | 10.5
26 | CCOC(=O)c1ccccc1-n1nnnc1C | 10.4
27 | COc1ccc(OCC(=O)N2CCOCC2)cc1 | 4.45
28 | Cc1ccc(C(=O)NNC(=O)/C=C\C(=O)O)cc1 | 6.41
29 | CCOc1ccc(N(CC(=O)Nc2ccc(OC)cc2)C2=NC3CS(=O)(=O)CC3S2)cc1 (centres unmarked) | 6.44
30 | O=C(CSc1nc2ccccc2c(=O)n1-c1ccccc1)NCc1ccc2c(c1)OCO2 | 3.23
31 | CN(C)S(=O)(=O)n1cc(/C=C(\NC(=O)c2ccccc2F)C(=O)NCCCN2CCOCC2)c2ccccc21 | -15.4
32 | CCOc1ccc(N2C(=O)CSC2=S)cc1 | 24.6
33 | COc1ccc(N(C(=O)c2cccnc2)S(=O)(=O)c2ccc(Cl)cc2)cc1 | -8.98
34 | CCC(NC(=O)Nc1cc(C)on1)(C(F)(F)F)C(F)(F)F | 9.14
35 | O=C(Cn1cnc2ccccc2c1=O)N1CCN(Cc2ccc3c(c2)OCO3)CC1 | -14
36 | CCOc1ccc(Nc2nc(N)c([N+](=O)[O-])c(NCc3ccccc3)n2)cc1 | 16.4
37 | O=C(c1ccsc1)N1CCCC(N2CCN(c3cccc(C(F)(F)F)c3)CC2)C1 (centres unmarked) | -64.2
38 | Nn1cnnc1N/N=C/c1ccc(F)cc1 | 3.59

Row | SMILES | hERG current change (%, negative = inhibition) at 10uM [%]
39 | O=C1C=C(c2cccs2)C[C@H](c2ccccc2)[C@H]1n1nnc([N+](=O)[O-])n1 | -3.92
40 | Cc1cccc(S(=O)(=O)Nc2ccc3c(c2)OCCO3)c1 | 12
41 | Cc1noc(C)c1Cc1c(Cl)cccc1Cl | 2.95
42 | COCCOC1CCN(C(=O)c2cc(COc3ccc(-n4cncn4)cc3)on2)CC1 | -22.8
43 | CCC(C)[C@H](NC(=O)NCCCOC(C)C)C(=O)OC (some centres unmarked) | 14
44 | CCn1c(COc2ccccc2)nnc1SCC(=O)C(C)(C)C | -14.2
45 | CC[C@@H](C)[C@H](CNC)NC[C@@H](Cc1cccc2ccccc12)NCCc1cccc(C(F)(F)F)c1 | -24.1
46 | C#CCOCCOCCOCCNc1nc(N2CCN(C(=O)Cn3cc(CC(C)O)nn3)CC2)nc(N2CCN(C(=O)[C@H](C)n3cc(CCC[NH+]=C(N)N)nn3)CC2)n1.[Cl-] (some centres unmarked) | 5.06
47 | COCCOCCn1c(/C=C/c2ccccc2)nc2ccccc21 | -11.9
48 | CN(C(=O)CSc1nnc(-c2cccnc2)o1)C1CCCCC1 | -6.01
49 | CCC(C)Sc1nc2ccccc2c(=O)[nH]1 (centres unmarked) | 1.6
50 | CCCn1nnnc1NCc1c(F)cccc1Cl | 12.9
51 | CC(C)c1ccc(NC(=O)C(c2ccccc2)N(C)C(=O)CCc2c[nH]c3ccccc23)cc1 (centres unmarked) | 5.79
52 | N#C/C=C(/N)N1CCN(c2ccc(Cl)c(Cl)c2)CC1 | -73.9
53 | CC(C)C(NC(=O)c1c(F)cccc1F)C(=O)NCc1ccc(S(=O)(=O)N2CCOCC2)cc1 (centres unmarked) | -7.99
54 | Cn1c(SCC(=O)Nc2nnc(-c3ccccc3)o2)nnc1C1CC1 | 9.79
55 | Cn1c(=O)c(=O)n(C)c2cc(S(=O)(=O)CCC(=O)Nc3c(F)c(F)c(F)c(F)c3F)ccc21 | 13.3
56 | CCOc1ccc(Br)cc1S(=O)(=O)Nc1ccc(Cl)c(S(=O)(=O)N(CC)c2ccccc2)c1 | 15

Source: publication PMC4336329 (PLoS ONE, 2015)
